This passage reports switch fluorescence ratio results from the supplement of paper PMC10126150.

Sequences with one replicate were seen in a single cluster, so their values are uncertain.

In the series the test system is ATP. Kind of series: switch fluorescence ratio, 500 uM ATP over buffer (Cy3 cluster intensity, sum of 5 cycles each) (fold (ratio)); higher = stronger signal-on switching upon ATP binding; sequences stand for … in TCGTCGGCAGCGTCAGATGTGTATAAGAGACAGTTTTTTTTTTTTTTTTTTTTTTTTT…TC. The settings on record: aptamer strand: ATP DNA aptamer (quencher-CACCTGGGGGAGTATTGCGGAGGAAGG + anchor), 100 nM annealed; ATP concentration: 500 uM; one replicate. The gist of the method: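 Switching-strand clusters labelled with Cy3 on a modified Illumina MiSeq flow-cell were annealed to 100 nM quencher-labelled ATP aptamer, imaged in selection buffer, and re-imaged after 15 min with 500 uM ATP at 22 °C. This was done over five cycles with NaOH stripping and re-annealing in between. The fluorescence ratio is summed target-cycle over summed buffer-cycle Cy3 intensity per cluster, averaged per switch-domain sequence, excluding clusters outside 100-1000 RFU.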
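Further: ATP exposure 15 min at 22 °C before imaging.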

As for GAAGTCAATT, the switch fluorescence ratio was determined as 1.11. Next, GAGGCAGTAT: 1.44; CTTGAATTAG: 1.02; GACTGCCCCG: 1.02.

On to CGCGCTTACG, for which the switch fluorescence ratio turned out to be 1.15.

As to TTACGTCCTT, the switch fluorescence ratio was 1.03. As for TGTCAGAGCA, the figure is 0.961. As for TTTATCCAGT, the figure is 0.963; as for GCGGAATCAA, 1.02. As for GAAGGCACGC, the figure is 1.07. With TGCCGCCCCG, the switch fluorescence ratio came to 1.12. Regarding ACACCTTCAT, the switch fluorescence ratio was found to be 1.83. Next, AGAATGGGAC: 1.01; TGGCCCCCTA: 0.958. Next, ACTCCCCCGG: 3.39. Next, AGGATATCGA: 1; CCTCAATTAG: 2.05; AACTATGTCC: 1.05.

For TATAATTCAT, the switch fluorescence ratio was found to be 1.05. Consider CCATTGTATA, for which the switch fluorescence ratio turned out to be 0.983. With AAACGATTAC, the switch fluorescence ratio turned out to be 1.22. For the sequence CCAATGAGTT, the switch fluorescence ratio was 0.986. As for ACACGTACT, the figure is 1.66; as for TTTAGCAGTC, 1.02; as for CAATCGGACG, 1.05. For the sequence TAGTCTTCCC, the switch fluorescence ratio was 1.06. As for CGAAAGGATT, the figure is 0.957. Regarding CACATCATAA, the switch fluorescence ratio worked out at 1.02.

As to CGAGATGGTG, the switch fluorescence ratio was found to be 1.01. Next, GGTTCATTTG: 0.997; TGTGTGCT: 1.02. With ATCCTTCGTC, the switch fluorescence ratio is 1.97. As to CATGGGTACT, the switch fluorescence ratio was 0.976. With AACGGTTTG, the switch fluorescence ratio was 0.954. As for CTTGAAGTCC, the figure is 1.02. Next, TATAGAAAAC: 0.995; GCACGCATTT: 1.12. Regarding CAAGTGTATT, the switch fluorescence ratio worked out at 0.999.

On to TAGAGCAGAA, for which the switch fluorescence ratio worked out at 0.979. Next, CTAGTAATAT: 1.25; GCGATAGGGG: 1.08. As to GGATCAATAT, the switch fluorescence ratio came to 1.03. Next, GTGACTTTA: 1.02; ATTAATACT: 1.03; ATGGATGTAG: 1.02. For the sequence ATGGGCTGTA, the switch fluorescence ratio came to 0.914.

For the sequence TTATGAAATC, the switch fluorescence ratio came out at 1.04. Next, ACTAACGCTT: 1.26; AGCGAAGGGT: 0.957. With AATCCAGAAT, the switch fluorescence ratio is 0.956. Next, TGAAGGTGTT: 1.19; TTAGTTGGT: 1.02.

On to CGTCGTGAAG, for which the switch fluorescence ratio worked out at 0.974. As to AGAATTTGCT, the switch fluorescence ratio came to 0.943.

For CGGAGTCTCA, the switch fluorescence ratio stood at 1.08.

TACGAGCCGG: the switch fluorescence ratio was found to be 1.02. As for TCGTGTCCGG, the figure is 0.976; as for GTATTTGGCA, 0.99. For the sequence CTGCGTTGA, the switch fluorescence ratio worked out at 1.02. As for AACGCACCGG, the figure is 1.49; as for ACCGCGCGT, 1.02. As to CTATATCGTT, the switch fluorescence ratio is 1. Next, CGCCCCACGC: 1.14. As to AACTACCCCG, the switch fluorescence ratio came out at 1.3. Next, AATTGTTAAG: 0.979; GTGCCCCGGT: 1.02; AGCCCGAGGT: 1.03.
